Read counts are not given, so values of variants with three or more changes are uncertain.
B1: CPEB3 Ribozyme (parent)
chain: UAACAGGGGGCCACAGCAGAAGCGUUCACGUCGCAGCCCCUGUCAGAUUCUGGUGAAUCUGCGAAUUCUGCUGUAUAUCUC

Variants of: B1
Experiment: self-cleavage, relative activity (ratio to wild type); higher = more cleavage; in vitro, sequencing
How it was run: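 CPEB3 self-cleaving ribozyme mutant libraries were made by rounds of error-prone PCR, barcoded, and transcribed in vitro with T7 RNA polymerase for 5 hours at 37°C. Cleavage occurred during transcription and a 15 min DNase I step before EDTA stop. RNAs were reverse transcribed with template switching and Illumina-sequenced, with DNA sequencing mapping barcodes to variants. Relative activity is the variant's cleaved/total read fraction divided by wild type's (minimum 5 reads), averaged across three batches.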

| Variant | self-cleavage |
| --- | --- |
| U25C U26C U72A | 0.12 |
| U25C U26C U76C | 0.15 |
| U25C U26G A45U A47G U60C U66C | 0.14 |
| U25C U31A A35G | 0.08 |
| U25C U31A C38A U41C U51C U72A | 0.11 |
| U25C U31A C39U C40A U41C U72C | 0.18 |
| U25C U31A U41A A57U U78C | 0.13 |
| U25C U31A U41C U67C | 0.41 |
| U25C U31A U51A G52A U76A A77G | 0.23 |
| U25C U31A U54A | 0.08 |
| U25C U31A U78C | 0.07 |
| U25C U31A U80A | 0.16 |
| U25C U31C A35G U43A | 0.2 |
| U25C U31C A35U | 0.28 |
| U25C U31C A45G | 0.12 |
| U25C U31C C32U U51C A56G | 0.07 |
| U25C U31C G33U G52A A65G U80C | 0.22 |
| U25C U31C U41C C68A | 0.13 |
| U25C U31C U67C | 0.14 |
| U25C U31C U69C | 0.09 |
| U25C U31C U72G | 0.17 |
| U25C U31G A45U U69C | 0.22 |
| U25C U31G A65G | 0.14 |
| U25C U31G U43C A56G A65U A75G | 0.05 |

| Variant | self-cleavage |
| --- | --- |
| U25C U41A A45U A64G | 0.16 |
| U25C U41A A56U | 0.18 |
| U25C U41A U43A | 0.29 |
| U25C U41A U49C | 0.42 |
| U25C U41A U60C C81A | 0.07 |
| U25C U41C A45G U48C A64U | 0.18 |
| U25C U41C A45U | 0.16 |
| U25C U41C A45U U48C U60C | 0.09 |
| U25C U41C A77G | 0.27 |
| U25C U41C G46A | 0.09 |
| U25C U41C G46A U66C U78C | 0.05 |
| U25C U41C U43A U76C | 0.26 |
| U25C U41C U48A | 0.16 |
| U25C U41C U67C U69C U72A | 0.38 |
| U25C U41G U54C U78C | 0.14 |
| U25C U41G U54C U80C | 0.13 |
| U25C U41G U69A U80C | 0.29 |
| U25C U41G U72C | 0.23 |
| U25C U41G U78C | 0.3 |
| U25C U43A A45U U78C | 0.17 |
| U25C U43A A47G | 0.28 |
| U25C U43A U51C | 0.51 |
| U25C U43A U54A U60C U74C | 0.19 |
| U25C U43A U54C A56U U69A | 0.13 |

| Variant | self-cleavage |
| --- | --- |
| U25C U43A U66C U72A | 0.09 |
| U25C U43A U66G | 0.47 |
| U25C U43C A56G A77G | 0.14 |
| U25C U43C U48A U58C | 0.14 |
| U25C U43C U49A G61C | 0.21 |
| U25C U43C U49C U60C | 0.23 |
| U25C U43C U54A U74C | 0.31 |
| U25C U43C U54C | 0.13 |
| U25C U43C U66C U74A A75U U76C | 0.08 |
| U25C U48C A56G A57G A75U | 0.08 |
| U25C U48C U67C | 0.11 |
| U25C U48C U72A U78C | 0.3 |
| U25C U48C U72C | 0.35 |
| U25C U48C U74A U78C | 0.39 |
| U25C U48C U74C U78C | 0.24 |
| U25C U49A U54C U80C | 0.08 |
| U25C U49A U72C U74A | 0.11 |
| U25C U49C A57G U60C A65U U80C | 0.12 |
| U25C U49C C62G U80C | 0.14 |
| U25C U49C G55U G61C | 0.07 |
| U25C U49C U60A A75G | 0.1 |
| U25C U49C U67A | 0.21 |
| U25C U49C U72C U74C | 0.17 |
| U25C U49C U78G | 0.18 |

| Variant | self-cleavage |
| --- | --- |
| U25C U51A A57G | 0.16 |
| U25C U51A U58C | 0.09 |
| U25C U51A U72C | 0.3 |
| U25C U51A U74G | 0.11 |
| U25C U51C A64U U69A | 0.04 |
| U25C U51C G61C C62A U80C | 0.14 |
| U25C U51C U54A A56U U74C | 0.08 |
| U25C U51C U74A U78A | 0.05 |
| U25C U54A A77G | 0.22 |
| U25C U54C U74C U78C | 0.14 |
| U25C U54C U78C | 0.2 |
| U25C U58C A64U U69C | 0.19 |
| U25C U58C U66C | 0.18 |
| U25C U58C U72G | 0.48 |
| U25C U58C U74C C81G | 0.32 |
| U25C U60A G70C U78C | 0.14 |
| U25C U60C U66C | 0.37 |
| U25C U60C U66C A77G | 0.17 |
| U25C U60C U74A A75G | 0.04 |
| U25C U66C U76C A77G | 0.16 |
| U25C U69A U74A | 0.07 |
| U25C U72A A75U | 0.08 |
| U25C U72G U78C | 0.19 |
| U25C U74A A77G | 0.28 |

| Variant | self-cleavage |
| --- | --- |
| U25C U76G U78C | 0.46 |
| U25C U78C U80C | 0.1 |
| U25C U78G U80C | 0.06 |
| U25G A28G U49C U78C | 0.08 |
| U25G A28G U80C | 0.17 |
| U25G A35G C71G | 0.16 |
| U25G A35U G46U U58A U78C C79U | 0.06 |
| U25G A47G U51A | 0.48 |
| U25G C34G U51A | 0.17 |
| U25G C40A U41C U51C U66C | 0.08 |
| U25G C40U A64G U69A U72A | 0 |
| U25G G30A A64G | 0.13 |
| U25G G30U C40U A45G | 0.12 |
| U25G U31C U51C | 0.31 |
| U25G U31G U43A A56G | 0.1 |
| U25G U43A U72C | 0.33 |
| U25G U49C A64U | 0.07 |
| U25G U51A U78C | 0.34 |
| U25G U51C A64G U72C U74C | 0.1 |
| U25G U51C U67A | 0.5 |
| U25G U67C U80C | 0.13 |
| U25G U72A A75G | 0.28 |
| U26A A28G A35G U80C | 0.97 |
| U26A A28G A64G | 0.29 |

| Variant | self-cleavage |
| --- | --- |
| U26A A28G G33U | 0.15 |
| U26A A28G U41C | 0.22 |
| U26A A28G U51C | 0.64 |
| U26A A28G U74C | 0.77 |
| U26A A28U A35U U80C | 0.25 |
| U26A A35G A47C G63A U74A | 1.15 |
| U26A A35G G53A G63A | 1.22 |
| U26A A35G G70U U76A | 1.1 |
| U26A A35G U58A U60A | 0.33 |
| U26A A35U U43C U49C U51C C59G U80C | 0.16 |
| U26A A35U U51A A56G | 0.31 |
| U26A A35U U54C | 0.4 |
| U26A A45G G55A | 0.27 |
| U26A A45G U49C U66A | 0.14 |
| U26A A45U U49C A65G | 0.17 |
| U26A A45U U51A U66C | 0.12 |
| U26A A47G G63A A75G | 0.46 |
| U26A A47G U48C A56C U69A C71U | 0.19 |
| U26A A47G U78C | 0.89 |
| U26A A56G U72C | 0.56 |
| U26A A56U U60C U66C U72C | 0.28 |
| U26A A57U A64G | 0.28 |
| U26A A65U U66C | 0.3 |
| U26A C29A A35U | 0.16 |

| Variant | self-cleavage |
| --- | --- |
| U26A C34A A35G U49C U60C | 0.33 |
| U26A C34G A65U U67C G73A | 0.04 |
| U26A C34G U72A U78C | 0.05 |
| U26A C34U U43A A45G U72A | 0.06 |
| U26A C37U A45G | 0.6 |
| U26A C38A U60A U78C U80C | 0.18 |
| U26A C38G U43C U76A | 0.29 |
| U26A C39U G53U | 0.66 |
| U26A C39U G61A | 0.36 |
| U26A C39U U43C A77G | 0.08 |
| U26A C39U U48C U60C U67C U72C U76C | 0.06 |
| U26A C39U U51G U72C | 0.5 |
| U26A C40U C81A | 0.8 |
| U26A C40U U49C A57C | 0.16 |
| U26A C50A C81U | 0.78 |
| U26A C62U A65G | 0.29 |
| U26A C62U U78A | 0.32 |
| U26A C62U U78C | 0.14 |
| U26A C68G U69C | 0.11 |
| U26A G33A C79U | 0.07 |
| U26A G36C U60A | 0.13 |
| U26A G36U U41A C44A A56G A65G U72A | 0.04 |
| U26A G42U A57U | 0.09 |
